Measured values published in PubChem BioAssay.
The list shows a part of the results, in another mix than the full data. The source made the active and inactive calls. Cut-off read from the data, not from the text of the source, unless noted: active = inhibition above about 25%; inactive = the rest.

How the values were obtained:
[1] = growth loss of phage-infected E. coli expressing H. pylori AddAB, confirmation, AddAB inhibitor project, absorbance, E. coli V3065, T4 phage, triplicate (AID 488942;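 active = mean inhibition above a set limit taken from the earlier primary screen, cut at about 13% in these data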;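 note: higher means less bacterial growth since AddAB block lets phage replicate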); settings: OD, at 11.9 µM, hits give high values, T4 phage with gene 2 nonsense mutations
[2] = bacterial viability inhibition counter-screen, confirmation, counter-screen for AddAB inhibitor project, absorbance (AID 488956); settings: absorbance (AddAB counterscreen), at 11.9 µM, hits give high values

**Q.** Which inhibition [1] does the source give for `CCn1cc(C(=O)O)c(=O)c2cc(F)c(N3CCN(C)CC3)cc21` here?
**A.** active: 96%

**Q.** What about the inhibition [2] of the same molecule?
**A.** active: 96.6%

**Q.** For `O=C1OCCN1/N=C/c1ccc([N+](=O)[O-])o1`, which inhibition [1] is on record?
**A.** active: 103%

**Q.** And the inhibition [2]?
**A.** active: 105%
